# Measured values published in the supplement of paper PMC10037445.
# Values joined by “and” are separate entries in the source; they are usually repeats but may differ in a detail not shown here. Identical values can stand only once. Whole data set: some 2,900 compounds, median “IRF Lucia reporter activity, fold change vs agonist alone” near 0.9, cut for the highest 2% near 2.8. Some of the results follow.
# Tests used:
# RAW-Dual [1] = test: IRF Lucia reporter activity, fold change vs agonist alone; cytotoxicity flag (confluency mask): not cytotoxic; higher = enhanced IRF activity
# Summary of the method: (§1)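 Reporter activity is given as fold change relative to agonist-alone wells. To measure it, 50 nL of library stock was pin-tooled onto RAW-Dual macrophages (50,000 cells/well, DMEM, 384-well plates), a PRR agonist followed 1 h later, and cells stayed at 37 °C, 5% CO2. Twenty hours on, supernatant was assayed for IRF (QuantiLuc luminescence) and NF-κB (QuantiBlue, 620 nm absorbance), and wells under 70% of agonist-control IncuCyte confluency in both mask sets were marked cytotoxic.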
# RAW-Dual [2] = test: IRF Lucia reporter activity, fold change vs agonist alone; cytotoxicity flag (confluency mask): cytotoxic (confluency <70% of control); higher = enhanced IRF activity
# Summary of the method: as §1
# RAW-Dual [3] = test: IRF Lucia reporter activity, fold change vs agonist alone; higher = enhanced IRF activity; conditions: library stock concentration (final ~1000-fold dilution): 10 mM, agonist: MPLA (TLR4) […]
# Summary of the method: as §1
# [4] = agonist: 3'3'-cGAMP (STING) 10 ug/mL
# [5] = cytotoxicity flag (confluency mask): cytotoxic (confluency <70% of control)
smiles,measurement,setting,value
CCCCS(=O)(=O)NC(Cc1ccc(OCCCCC2CCNCC2)cc1)C(=O)O.Cl.O (centres undefined) (library stock concentration (final ~1000-fold dilution): 10 mM),IRF Lucia reporter activity,RAW-Dual [1]; [4],0.894
same,IRF Lucia reporter activity,RAW-Dual [1]; agonist: LPS (TLR4) 0.1 ug/mL,1.35
CC(C)CC(NC(=O)C(Cc1ccccc1)CC(O)C(Cc1ccccc1)NC(=O)OC(C)(C)C)C(=O)NC(Cc1ccccc1)C(N)=O (centres undefined) (library stock concentration (final ~1000-fold dilution): 10 mM),IRF Lucia reporter activity,RAW-Dual [1]; [4],1.1
same,IRF Lucia reporter activity,RAW-Dual [1]; agonist: LPS (TLR4) 0.1 ug/mL,1.5
Nc1ccn(C2OC(CO)C(O)C2(F)F)c(=O)n1 (centres undefined) (library stock concentration (final ~1000-fold dilution): 10 mM),IRF Lucia reporter activity,RAW-Dual [2]; [4],1.58
same,IRF Lucia reporter activity,RAW-Dual [2]; agonist: LPS (TLR4) 0.1 ug/mL,1.43
Nc1ccn(C2OC(CO)C(O)C2(F)F)c(=O)n1 (centres undefined),IRF Lucia reporter activity,RAW-Dual [3]; [5],1.3
CC(O)C(=O)O.CN1CCN(c2ccc3nc(-c4c(N)c5c(F)cccc5[nH]c4=O)[nH]c3c2)CC1 (library stock concentration (final ~1000-fold dilution): 10 mM),IRF Lucia reporter activity,RAW-Dual [2]; [4],0.013
same,IRF Lucia reporter activity,RAW-Dual [2]; agonist: LPS (TLR4) 0.1 ug/mL,0.026
O=C(NC1CCNCC1)c1n[nH]cc1NC(=O)c1c(Cl)cccc1Cl,IRF Lucia reporter activity,RAW-Dual [3]; [5],0.317
O=C(NC1CCNCC1)c1n[nH]cc1NC(=O)c1c(Cl)cccc1Cl (library stock concentration (final ~1000-fold dilution): 10 mM),IRF Lucia reporter activity,RAW-Dual [2]; [4],0.432
same,IRF Lucia reporter activity,RAW-Dual [2]; agonist: LPS (TLR4) 0.1 ug/mL,0.842
O=CN1CC/C(=C/c2ccc3c(c2)OCO3)C1=O (library stock concentration (final ~1000-fold dilution): 10 mM),IRF Lucia reporter activity,RAW-Dual [1]; [4],0.61
same,IRF Lucia reporter activity,RAW-Dual [1]; agonist: LPS (TLR4) 0.1 ug/mL,0.421
CS(=O)(=O)O.Cc1ccc(NC(=O)c2ccc(CN3CCN(C)CC3)cc2)cc1Nc1nccc(-c2cccnc2)n1 (library stock concentration (final ~1000-fold dilution): 10 mM),IRF Lucia reporter activity,RAW-Dual [2]; [4],0.318
same,IRF Lucia reporter activity,RAW-Dual [2]; agonist: LPS (TLR4) 0.1 ug/mL,0.601
CS(=O)(=O)O.Cc1ccc(NC(=O)c2ccc(CN3CCN(C)CC3)cc2)cc1Nc1nccc(-c2cccnc2)n1,IRF Lucia reporter activity,RAW-Dual [3]; [5],0.941
CCCCOc1cc(C(=O)NCCN(CC)CC)c2ccccc2n1.Cl,IRF Lucia reporter activity,RAW-Dual [3]; cytotoxicity flag (confluency mask): not cytotoxic,1.4
CCCCOc1cc(C(=O)NCCN(CC)CC)c2ccccc2n1.Cl (library stock concentration (final ~1000-fold dilution): 10 mM),IRF Lucia reporter activity,RAW-Dual [1]; [4],1.09
same,IRF Lucia reporter activity,RAW-Dual [1]; agonist: LPS (TLR4) 0.1 ug/mL,1.18
CCCC(CCC)C(=O)O (library stock concentration (final ~1000-fold dilution): 10 mM),IRF Lucia reporter activity,RAW-Dual [1]; [4],0.816 and 1.01 and 1.05
same,IRF Lucia reporter activity,RAW-Dual [1]; agonist: LPS (TLR4) 0.1 ug/mL,0.941 and 0.866 and 1
CC12CCC(O)CC1=CCC1C2CCC2(C)C(C(O)CC(O)(C(F)(F)F)C(F)(F)F)CCC12 (centres undefined) (library stock concentration (final ~1000-fold dilution): 10 mM),IRF Lucia reporter activity,RAW-Dual [1]; [4],1.03
same,IRF Lucia reporter activity,RAW-Dual [1]; agonist: LPS (TLR4) 0.1 ug/mL,1.31
